The record followed here is PubChem BioAssay AID488969 (Vanderbilt High Throughput Screening Facility, 2010).

The full ranking holds about 110,000 compounds; the median of “z-score” is about -0.1, and the highest 2% start at about 2. The list shows a part of the results. Active and inactive are the calls of the source.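 The calls were made as follows: active = z-score in the third read window above 3 or below -3; inactive = the rest.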

The experiment addresses Metabotropic glutamate receptor 8 (Rattus norvegicus) (UniProt P70579). Put plainly: rat mGluR8 modulators via GIRK flux, primary screen, cell-based, thallium flux, HTS (AID 488969). Conditions: HEK293 rat mGluR8, GIRK (G protein-gated inwardly rectifying potassium channel) thallium flux, FluoZin2; at 10 µM; stronger effect = higher value; submaximal glutamate (EC20) added with thallium.
Sequence of UniProt P70579 (P70579 whole entry, looked up): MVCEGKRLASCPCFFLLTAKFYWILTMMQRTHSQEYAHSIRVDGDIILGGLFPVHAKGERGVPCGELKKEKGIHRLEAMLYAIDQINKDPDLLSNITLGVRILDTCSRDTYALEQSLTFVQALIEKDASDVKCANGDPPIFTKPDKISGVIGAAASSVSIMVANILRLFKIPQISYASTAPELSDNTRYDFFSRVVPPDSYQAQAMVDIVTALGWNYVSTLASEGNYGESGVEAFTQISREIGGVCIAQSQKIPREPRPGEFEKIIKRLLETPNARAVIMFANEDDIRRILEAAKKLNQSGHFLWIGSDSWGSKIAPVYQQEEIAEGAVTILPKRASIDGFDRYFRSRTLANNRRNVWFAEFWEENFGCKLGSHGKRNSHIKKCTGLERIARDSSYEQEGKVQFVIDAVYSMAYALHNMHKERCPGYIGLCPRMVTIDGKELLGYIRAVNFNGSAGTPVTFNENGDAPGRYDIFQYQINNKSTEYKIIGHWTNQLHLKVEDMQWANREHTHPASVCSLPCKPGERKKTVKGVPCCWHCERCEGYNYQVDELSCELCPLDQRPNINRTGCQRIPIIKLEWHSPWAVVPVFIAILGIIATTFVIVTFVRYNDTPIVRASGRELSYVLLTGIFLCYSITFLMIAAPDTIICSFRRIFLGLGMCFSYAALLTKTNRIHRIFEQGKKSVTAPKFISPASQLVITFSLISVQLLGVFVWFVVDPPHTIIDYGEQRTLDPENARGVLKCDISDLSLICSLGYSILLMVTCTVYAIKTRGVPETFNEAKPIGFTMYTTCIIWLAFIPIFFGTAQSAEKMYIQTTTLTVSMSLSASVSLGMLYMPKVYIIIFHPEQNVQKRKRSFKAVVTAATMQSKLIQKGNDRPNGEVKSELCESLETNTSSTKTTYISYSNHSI
The molecule `CNC(=O)CSc1nnnn1-c1ccc(C)cc1C` showed a z-score of 0.252. On to `C[n+]1cc[nH]c1SCC(=O)c1ccccc1`, for which the z-score is -0.187.

The molecule `CCOC(=O)c1sc(N)c(C#N)c1CSc1nnc(C2CC2)n1N` gave a z-score of -0.0336.

`FC(F)(F)c1ccc(CSc2nccn2-c2ccccc2)cc1` registered a z-score of 0.167. The result for `O=C(Nc1ccc2c(c1)OCCO2)c1ccc(Br)c(S(=O)(=O)N2CCOCC2)c1` reads -0.541. As for `Cc1ccc(C(=O)Oc2ccc(Cl)c3cccnc23)cc1[N+](=O)[O-]`, the figure is 0.387; as for `CCCn1c(=S)[nH]c2cc(C(=O)N3CCCC(C(=O)OCC)C3)ccc2c1=O` (centres undefined), 1.05. The result for `O=C(NNC(=O)c1cc(OCC(F)(F)F)ccc1OCC(F)(F)F)c1cccc(C(F)(F)F)c1` reads 0.228. Molecule `O=C(c1ccc(S(=O)(=O)N2CCOCC2)cc1)N(c1ccc(F)cc1)C1C=CS(=O)(=O)C1` (centres undefined) returned a z-score of -0.462. The result for `O=C(Nc1ncc2c(n1)-c1ccccc1CC2)c1ccccc1` reads -0.277; that for `COc1cccc(/C=N/NC(=O)c2ccc(CN3c4cccc5cccc(c45)S3(=O)=O)cc2)c1`, -0.142. As for `O=C(O)c1cccc(N=NN2CCCCCC2)c1`, the figure is -0.207; as for `COc1ccc(C(c2nnnn2CS(=O)(=O)c2ccc(C)cc2)N2CCN(Cc3ccccc3)CC2)cc1` (centres undefined), -0.018; as for `CCOc1cccc(C(=O)NC(=S)Nc2ccc(N3CCCC3)cc2)c1`, 0.97. As for `CCC12C(=O)C(CC)(C(c3ccccc3)=C1c1ccccc1)[C@@H]1C(=O)N(c3ccccc3)C(=O)C12` (some centres undefined), the figure is 0.116; as for `CCCSc1cc(N2CCCC2)nc(-c2ccccc2)n1`, -0.845; as for `CC(=O)Nc1ccc(N2CCN(Cc3ccccc3F)CC2)cc1`, -0.196. In turn, `CCSCCNC(=O)c1cc(-n2cnnc2)ccc1Cl` registered a z-score of -0.0565. The molecule `Cc1ccc(C)c(Cn2c(CO)nc3ccccc32)c1` yielded a z-score of -0.259. In turn, `O=c1c(-c2ccnn2-c2cccc(Cl)c2)cnc2n1CCS2` displayed a z-score of 0.552. The result for `CCOc1ccc(-n2cnnn2)cc1S(=O)(=O)NCCc1ccc(OC)c(OC)c1` reads 0.0271; that for `O=C(CSc1ccccc1)Nc1nc2ccccc2[nH]1`, -0.269; that for `COCc1nnc(NC(=O)c2ccc(S(=O)(=O)N(C)C3CCCCC3)cc2)o1`, -0.626.

`COC(=O)C1=CN(CCCN2CCCC2=O)C=C(C(=O)OC)C1c1ccccc1C(F)(F)F` returned a z-score of 0.428.

`CC(C)n1cc(C(=O)c2cc(Br)ccc2O)cc(C#N)c1=O` displayed a z-score of -0.207. As for `CCOC(=O)N1CCN(C(=O)c2ccc(CNS(=O)(=O)c3ccc(OC)cc3)cc2)CC1`, the figure is -0.593; as for `COc1ccc(NC(=S)N2CCN(C/C=C/c3ccccc3)CC2)cc1`, -0.821; as for `COC(=O)c1ccccc1NC(=O)Cn1c(CCC(=O)O)ccc1-c1cccs1`, 0.0362. The result for `Cc1ccc2c(c1)c1c3n2CCN(C(=O)Cn2c(-c4ccccc4)noc2=O)C3CCC1` (centres undefined) reads -0.365; that for `CCC(CC)C(=O)Nc1cccc(S(=O)(=O)c2cccc(NC(=O)C(CC)CC)c2)c1`, -0.161. The result for `COc1ccc(NC(=O)C(=O)N/N=C/c2cccnc2)c(OC)c1` reads -0.23; that for `CCOc1cc(C2C(C(=O)OC)=CN(C3CCCC3)C=C2C(=O)OC)cc(Br)c1O`, 0.183; that for `CCCOc1ccccc1NC(=O)c1ccc(N)cc1`, -0.341. For the molecule `Cc1cccc(-n2c(SCc3cc(=O)n4ccsc4n3)nc3ccccc3c2=O)c1`, the z-score is -0.276. The result for `Cc1ccc(C)c(NC(=O)CS(=O)(=O)c2cn(C)c3ccccc23)c1` reads 0.61; that for `O=C(CS(=O)(=O)Cc1ccccc1)NCC1CCCO1` (centres undefined), -0.164. As to `Cc1ccccc1CSc1nc2ccccc2c(=O)[nH]1`, the z-score was -0.246. The result for `CN1CCN(C(=O)/C=C/c2ccc([N+](=O)[O-])cc2)CC1` reads -0.07.

For the molecule `CCOc1ncccc1C(=O)OCc1c(Cl)cccc1Cl`, the z-score is -0.0658. Turning to `O=C(Oc1ccc(-c2cnc3ccccc3n2)cc1)c1cccc([N+](=O)[O-])c1`, the z-score was -0.131. The result for `CCc1ccccc1NC(=O)CN(C)S(=O)(=O)c1ccc2c(c1)c(=O)n(C)c(=O)n2C` reads -0.094.

`COc1ccc(OCCN2CCN(C3CC(=O)N(CCC(C)C)C3=O)CC2)cc1` (centres undefined): the z-score was -0.363. On to `COCCCN(C(=S)Nc1ccc(C)cc1Cl)C(C)c1ccncc1` (centres undefined), for which the z-score stood at 0.722. In the case of `CCCSc1nnc(-c2cnn(-c3ccccc3)c2-n2cccc2)n1C`, the z-score was -0.0552. The result for `COc1ccc(NC(=S)NCCCN2CCN(C3CCCCC3)CC2)cc1` reads 0.036; that for `CCCc1c(C(=O)OCC)[nH]c2c1C(=O)CCC2`, -0.0909.

Turning to `CCSc1nnc([C@H](Cc2c[nH]c3ccccc23)NC(=O)OC(C)(C)C)o1`, the z-score is -0.445. As for `COc1ccc(OC)c(NC(=O)c2ccc(NS(=O)(=O)c3c(C)noc3C)cc2)c1`, the figure is 0.771; as for `CCOc1ccc(NC(=O)COC(=O)Cc2ccc(S(=O)(=O)N3CCOCC3)s2)cc1`, -0.587. As for `O=C(CN1CCOCC1)NCC12CC3CC(CC(C3)C1)C2`, the figure is 0.764. As for `COc1ccc(Oc2nc(C)cc(C)c2C#N)cc1`, the figure is 0.658.

In turn, `Cc1nn(CC(=O)Nc2nnc(CC(=O)N3CCCC3)s2)c(=O)c2ccccc12` came in with a z-score of 0.857.

Molecule `CCCOc1ccc(-c2csc(NC(=O)CN3C(=O)CCC3=O)n2)cc1` had a z-score of -0.00662. As for `Clc1ccc(CCNc2nc3ccccc3n3nnnc23)cc1`, the figure is -0.195; as for `COC(=O)c1ccc(NC(=O)C(C)Oc2ccccc2)cc1` (centres undefined), 0.0469; as for `CC1CCCCN1CC(=O)Nc1ccc(Oc2ccccc2)cc1` (centres undefined), active: 3.58. As for `CCCn1c(SCC(=O)O)nc2ccccc21`, the figure is -0.154. The result for `Cc1c(Cl)cccc1NC(=S)NC1CC1` reads 0.237.

`Cc1c(-n2c(=S)[nH]c3ccccc3c2=O)c(=O)n(-c2ccccc2)n1C` registered a z-score of 0.153. The molecule `Cc1cc(CSc2ccccc2)ccc1NC(=O)COc1ccccc1C` came in with a z-score of -0.222. As for `CCOc1ccc(Br)cc1S(=O)(=O)N1CCCC1`, the figure is 0.314; as for `CC(C)(C)c1nnc(N/N=C/c2cc(Br)ccc2O)n(N)c1=O`, 0.123; as for `Cc1ccccc1NS(=O)(=O)c1ccc2[nH]cc(C(=O)N(C)Cc3ccco3)c(=O)c2c1`, 0.282. For the molecule `CC(=O)c1ccc(NC(=O)Nc2ccc(NS(=O)(=O)c3ccc(C)cc3)cc2)cc1`, the z-score is -0.151.

On to `CCOC(=O)c1cc(-c2nnc(-c3ccc(Cl)cc3)o2)c(C)nc1C`, for which the z-score is -0.0573. For `CCCC(=O)Nc1nc2c(c(=O)[nH]1)CCCC2`, the z-score was -0.142. The result for `CCSc1nc(N)c2c3c(sc2n1)CCC3` reads -0.615; that for `Cc1cccc2sc(NC(=O)[C@@H]3CCCN3C(=O)c3cccs3)nc12`, 0.0455; that for `CCCCNC(=S)NNC(=O)c1csc(CC)c1`, -0.0512.
